This note sets out measurements from publication PMC5892938.

This is one part of the list. At the low end of the ranking the order means little.

For the assay, the target named is GST-SBP-SLBP (stem-loop binding protein) (UniProt Q14493). The experiment in a line: targeted RNA Bind-n-Seq.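 Further: DESeq read counts versus GST-SBP nonspecific binding control pulldown.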 The settings on record: RBNS binding buffer: 25 mM Tris pH 7.5, 150 mM KCl, 3 mM MgCl2, 0.1% Tween, 0.5 mg/mL BSA, 1 mM DTT; 27 nM protein, 750 pM RNA pool; temperature not stated; high values mean tight binding.
“GGUCACGUCUCAAUCAACUCUUUCUCCAGGGAAAUCCCUGGCAAUUUCAACAGCUCGCAGUCAAG”: the binding signal (log2 fold change) worked out at 0.055. The value for “GGUCACGUCUCAAUCAACUCAUUAGAGGGGGGGAAAACCCCUUUGCCCUCCGUAUCAACAGCUCGCAGUCAAG” was -0.113; that for “GGUCACGUCUCAAUCAACUCAUCGCCAGGAGUUUACUCCUGUUUUCUCAACAGCUCGCAGUCAAG” was -0.0646; that for “GGUCACGUCUCAAUCAACUCCUACGAGGGGGGGAAAACCCCUUUACCCUCCAAAUCAACAGCUCGCAGUCAAG” was 0.178. In the case of “GGUCACGUCUCAAUCAACUCUUCCUCCAGGGAAACCCCUGGUAAUUUCAACAGCUCGCAGUCAAG”, the binding signal (log2 fold change) is -0.0419. Take “GGUCACGUCUCAAUCAACUCUAAAGAGGGGGGGAAAACCCCUUUACCCUCACCAUCAACAGCUCGCAGUCAAG”: the binding signal (log2 fold change) is -0.193. The value for “GGUCACGUCUCAAUCAACUCAUUUCCCAGGGAAACCCCUGGUUAUUUCAACAGCUCGCAGUCAAG” was 0.00328; that for “GGUCACGUCUCAAUCAACUCAAUAGAGGGGGGGAAAACCCCUUUACCCUCACUAUCAACAGCUCGCAGUCAAG” was -0.218.

Take “GGUCACGUCUCAAUCAACUCAUUUUCAGGAGUUUCCUCCUGCAUAUUCAACAGCUCGCAGUCAAG”: the binding signal (log2 fold change) was 0.0879.

Turning to “GGUCACGUCUCAAUCAACUCUUUCCCCAGGGAAAACCCUGGUUUAUUCAACAGCUCGCAGUCAAG”, the binding signal (log2 fold change) is -0.221.

As for “GGUCACGUCUCAAUCAACUCUUCCCCCAGGGAAAACCCUGGCAUUUUCAACAGCUCGCAGUCAAG”, the binding signal (log2 fold change) was determined as 0.0691. The value for “GGUCACGUCUCAAUCAACUCAAUUUCCAGGGAAAACCCUGGCUUACUCAACAGCUCGCAGUCAAG” was 0.0684.

Turning to “GGUCACGUCUCAAUCAACUCUUCGUCCAGGGAAAACCCUGGCAUUUUCAACAGCUCGCAGUCAAG”, the binding signal (log2 fold change) is 0.00161. The value for “GGUCACGUCUCAAUCAACUCAUUUCCCAGGGAAAACCCUGGCUAUCUCAACAGCUCGCAGUCAAG” was 0.0963; that for “GGUCACGUCUCAAUCAACUCAACUCCAGGAGUUUACUCCUGCAAAUUCAACAGCUCGCAGUCAAG” was -0.0675; that for “GGUCACGUCUCAAUCAACUCUUUCUCCAGGGAAAGCCCUGGCAUACUCAACAGCUCGCAGUCAAG” was -0.0962. The value for “GGUCACGUCUCAAUCAACUCAAUCUCCAGGGAAACCCCUGGCUUACUCAACAGCUCGCAGUCAAG” was 0.244; that for “GGUCACGUCUCAAUCAACUCAUCUUCAGGAGUUUACUCCUGUAUUCUCAACAGCUCGCAGUCAAG” was 0.13; that for “GGUCACGUCUCAAUCAACUCUUCCCCCAGGGAAAGCCCUGGUUUUUUCAACAGCUCGCAGUCAAG” was -0.2.

Take “GGUCACGUCUCAAUCAACUCAUUUCCCAGGGAAAGCCCUGGCUUUCUCAACAGCUCGCAGUCAAG”: the binding signal (log2 fold change) is 0.0523. Regarding “GGUCACGUCUCAAUCAACUCUUCUUCAGGAGUUUUCUCCUGUAAUCUCAACAGCUCGCAGUCAAG”, the binding signal (log2 fold change) came out at 0.12. For “GGUCACGUCUCAAUCAACUCUUCGUCCAGGGAAAGCCCUGGUUUUUUCAACAGCUCGCAGUCAAG”, the binding signal (log2 fold change) is -0.279. Regarding “GGUCACGUCUCAAUCAACUCAAUUCCAGGAGUUUGCUCCUGUAUUUUCAACAGCUCGCAGUCAAG”, the binding signal (log2 fold change) is -0.181. The value for “GGUCACGUCUCAAUCAACUCCUCAGAGGGGGGGAAAACCCCUUUACCCUCCAUGUCAACAGCUCGCAGUCAAG” was -0.276; that for “GGUCACGUCUCAAUCAACUCAAGUCCAGGAGUUUACUCCUGCAAUCUCAACAGCUCGCAGUCAAG” was -0.0987; that for “GGUCACGUCUCAAUCAACUCUCAAGAGGGGGGGAAAACCCCUUUGCCCUCCAUAUCAACAGCUCGCAGUCAAG” was -0.17. Take “GGUCACGUCUCAAUCAACUCUUCUUCCAGGGAAAACCCUGGUAAUGUCAACAGCUCGCAGUCAAG”: the binding signal (log2 fold change) was 0.12. The value for “GGUCACGUCUCAAUCAACUCAUUUUCCAGGGAAAUCCCUGGCUUACUCAACAGCUCGCAGUCAAG” was -0.0356. Regarding “GGUCACGUCUCAAUCAACUCAUUCCCAGGAGUUUCCUCCUGUAUACUCAACAGCUCGCAGUCAAG”, the binding signal (log2 fold change) amounted to 0.0107. “GGUCACGUCUCAAUCAACUCUAUCGAGGGGGGGAAAACCCCUUUACCCUCAUCCUCAACAGCUCGCAGUCAAG”: the binding signal (log2 fold change) is -0.419. Turning to “GGUCACGUCUCAAUCAACUCUAUCCCCAGGGAAAGCCCUGGCAUACUCAACAGCUCGCAGUCAAG”, the binding signal (log2 fold change) was -0.272. For the sequence “GGUCACGUCUCAAUCAACUCAUCUUCAGGAGUUUACUCCUGUUUUCUCAACAGCUCGCAGUCAAG”, the binding signal (log2 fold change) was found to be 0.0272. Turning to “GGUCACGUCUCAAUCAACUCUACUCCCAGGGAAAUCCCUGGUUAACUCAACAGCUCGCAGUCAAG”, the binding signal (log2 fold change) amounted to 0.0703. The value for “GGUCACGUCUCAAUCAACUCAAUCCCCAGGGAAAGCCCUGGCAAAUUCAACAGCUCGCAGUCAAG” was -0.0658; that for “GGUCACGUCUCAAUCAACUCUUCCCCCAGGGAAAUCCCUGGCUUUUUCAACAGCUCGCAGUCAAG” was 0.279.

On to “GGUCACGUCUCAAUCAACUCAUCUUCCAGGGAAAGCCCUGGCUAAUUCAACAGCUCGCAGUCAAG”, for which the binding signal (log2 fold change) stood at 0.217. Turning to “GGUCACGUCUCAAUCAACUCAUCCCCAGGAGUUUCCUCCUGUAAACUCAACAGCUCGCAGUCAAG”, the binding signal (log2 fold change) turned out to be 0.031.
